According to the antibiotic and cytotoxicity screens of Wong et al. (2023):
The other results are listed elsewhere or left out.

What follows are molecules tested on HSkMC (human skeletal muscle cells) (assay: cytotoxicity call (relative viability < 0.9)). Settings: 10 µM.
For `O=C(C[C@H]1C[C@H]2c3cc(NC(=O)Nc4ccccc4)ccc3O[C@H]2[C@H](CO)O1)NCCN1CCCCC1`, the cytotoxicity call was “inactive”. `Cc1ccc(S(=O)(=O)Nc2ccc3c(c2)C(=O)N(C)[C@H]2CC[C@H](CC(=O)NCCc4ccncc4)O[C@H]2CO3)cc1` was tested, and the cytotoxicity call was “inactive”. With `Cc1ccc(-c2nn[nH]n2)n1C` the cytotoxicity call was “inactive”. With `C[C@@H]1CCCCO[C@H](CN(C)C(=O)Nc2ccc(F)cc2)[C@H](C)CN([C@@H](C)CO)C(=O)c2cc(NC(=O)Nc3cccc4ccccc34)ccc2O1` the cytotoxicity call was “inactive”. With `C[C@H]1CCCN(S(=O)(=O)CCN)C1` the cytotoxicity call was “inactive”. `C[C@@H]1CN([C@@H](C)CO)C(=O)c2cc(NS(=O)(=O)c3ccccc3)ccc2O[C@@H]1CN(C)C(=O)Nc1cccc2ccccc12` was tested, and the cytotoxicity call was “inactive”. In the case of `COc1ccccc1CNC(=O)C[C@H]1C[C@H]2c3cc(NC(=O)c4cccnc4)ccc3O[C@H]2[C@H](CO)O1`, the cytotoxicity call is reported as “inactive”. In the case of `C[C@@H]1CCCCO[C@H](CN(C)C(=O)C2CCCCC2)[C@@H](C)CN([C@@H](C)CO)C(=O)c2cc(NC(=O)Cc3ccccc3)ccc2O1`, the cytotoxicity call is reported as “inactive”. `COC(=O)c1c2oc(c1C(=O)OC)C(=O)N[C@H](Cc1ccccc1)Cn1cc(nn1)[C@H](Cc1ccccc1)NC(=O)N[C@@H](CO)CC2` was tested, and the cytotoxicity call was “inactive”. In the case of `C[C@@H]1CN([C@@H](C)CO)S(=O)(=O)c2ccc(C#Cc3ccncc3)cc2O[C@H]1CN(C)S(=O)(=O)c1ccc(F)cc1`, the cytotoxicity call is reported as “inactive”. In the case of `O=C/C=C/c1ccc(Cl)cc1`, the cytotoxicity call is reported as “inactive”. For `C[C@H](CO)N1C[C@H](C)[C@@H](CN(C)C(=O)Nc2cccc3ccccc23)OCCCC[C@H](C)Oc2ccc(NC(=O)Nc3ccc(C(F)(F)F)cc3)cc2C1=O`, the cytotoxicity call was “inactive”. For `C[C@H](CO)N1C[C@H](C)[C@H](CN(C)S(=O)(=O)c2cn(C)cn2)Oc2ccc(NC(=O)NC3CCCCC3)cc2CC1=O`, the cytotoxicity call was “inactive”. With `COCCNC(=O)C[C@@H]1CC[C@H]2[C@@H](COC[C@@H](O)CN2C(=O)Nc2ccccc2OC)O1` the cytotoxicity call was “inactive”. With `CO[C@H]1CN(C)C(=O)c2ccc(NS(=O)(=O)CC(F)(F)F)cc2OC[C@H](C)N(Cc2ccccn2)C[C@@H]1C` the cytotoxicity call was “inactive”. In the case of `CC(C)(O)c1ccccc1CCC(SCC1(CC(=O)[O-])CC1)c1cccc(C=Cc2ccc3ccc(Cl)cc3n2)c1.[Na+]` (stereo not given), the cytotoxicity call is reported as “inactive”. With `C[C@H]1CCCCO[C@H](CN(C)S(=O)(=O)c2cccs2)[C@@H](C)CN([C@@H](C)CO)C(=O)c2cc(NC(=O)Nc3ccccc3)ccc2O1` the cytotoxicity call was “inactive”. `O=C1O[C@H](c2ccccc2)[C@H](c2ccccc2)N2[C@H]1[C@@H](C(=O)N1CCCCCCC1)[C@]1(C(=O)Nc3ccc(C#CCCO)cc31)[C@H]2c1ccc(OCCO)cc1` was tested, and the cytotoxicity call was “inactive”. `CCn1c(-n2nc(C)cc2C)nc2c1c(=O)n(CC(N)=O)c(=O)n2C` was tested, and the cytotoxicity call was “inactive”. For `C[C@H](CO)N1C[C@H](C)[C@H](CN(C)Cc2ccccc2)Oc2c(NC(=O)C3CCOCC3)cccc2C1=O`, the cytotoxicity call was “inactive”. For `O=C(C[C@@H]1CC[C@@H](NC(=O)CN2CCOCC2)[C@@H](CO)O1)NCc1cccc(F)c1`, the cytotoxicity call was “inactive”. `C[C@@H]1CN([C@H](C)CO)C(=O)c2cc(NS(=O)(=O)c3cn(C)cn3)ccc2O[C@@H](C)CCCCO[C@H]1CN(C)C(=O)Nc1ccc(C(F)(F)F)cc1` was tested, and the cytotoxicity call was “inactive”. With `C[C@@H]1CN([C@H](C)CO)C(=O)c2cccc(NS(=O)(=O)c3cn(C)cn3)c2O[C@@H]1CN(C)Cc1ccc(C(=O)O)cc1` the cytotoxicity call was “inactive”. For `O=C1C=CC(O)(CC(=O)OC[C@H]2O[C@@H](OC(=O)CC3(O)C=CC(=O)C=C3)[C@H](O)[C@@H](O)[C@H]2O)C=C1`, the cytotoxicity call was “inactive”. With `C[C@@H]1CN([C@H](C)CO)C(=O)c2cc(NC(=O)Nc3ccc(F)cc3)ccc2O[C@@H](C)CCCCO[C@H]1CN(C)Cc1ccncc1` the cytotoxicity call was “inactive”. With `O=C(Cc1ccncc1)Nc1ccc2c(c1)[C@@H]1C[C@@H](CC(=O)N3CCc4ccccc4C3)O[C@H](CO)[C@@H]1O2` the cytotoxicity call was “inactive”. With `CCOC(=O)N1CCC(O)CC1` the cytotoxicity call was “inactive”. In the case of `C[C@H](CO)N1C[C@H](C)[C@H](CN(C)S(=O)(=O)c2ccc(F)cc2)Oc2c(NC(=O)c3cnccn3)cccc2C1=O`, the cytotoxicity call is reported as “inactive”. With `C[C@@H]1CN([C@@H](C)CO)C(=O)c2cc(NS(C)(=O)=O)ccc2O[C@H]1CN(C)Cc1ccc(C(=O)Nc2ccccc2N)cc1` the cytotoxicity call was “inactive”. In the case of `COc1ccc(NC(=O)N(C)C[C@@H]2OCCCC[C@H](C)Oc3ccc(NS(=O)(=O)c4c(C)noc4C)cc3C(=O)N([C@@H](C)CO)C[C@H]2C)cc1`, the cytotoxicity call is reported as “inactive”.
